# Source: the supplement of paper PMC8728848
# Some of the results follow.
# B1: MVL (Microcystis viridis), Q9RHG4 (protein)
# chain: MASYKVNIPAGPLWSNAEAQQVGPKIAAAHQGNFTGQWTTVVESAMSVVEVELQVENTGIHEFKTDVLAGPLWSNDEAQKLGPQIAASYGAEFTGQWRTIVEGVMSVIQIKYTF
# Legend:
# Assay in all cases: glycan array binding signal (z-score within array); higher = stronger binding
# Conditions in all cases: glycan notation: IUPAC condensed, linker removed
# GlcNAc(b1-3)Man = target: GlcNAc(b1-3)Man
# Outline: (§1)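 The binding signal is a Z-score computed within each array. Data were drawn from 3228 arrays in the Consortium for Functional Glycomics database, restricted to those with a known protein sequence. Scores were averaged over arrays of the same protein sequence at different concentrations or buffers, and over linkers, and negative values can be taken as non-binding.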
# [1] = target: GlcNAc(b1-3)[GlcNAc(b1-4)][GlcNAc(b1-6)]GlcNAc
# Outline: as §1
# [2] = target: GlcNAc(b1-3)[GlcNAc(b1-6)]Gal(b1-4)GlcNAc
# Outline: as §1
# [3] = target: GlcNAc(b1-3)[GlcNAc(b1-6)]GalNAc
# Outline: as §1
# [4] = target: GlcNAc(b1-3)[GlcNAc(b1-6)]GlcNAc(b1-4)GlcNAc
# Outline: as §1
# [5] = target: GlcNAc(b1-4)Gal(b1-4)GlcNAc
# Outline: as §1
# GlcNAc(b1-4)GlcNAc = target: GlcNAc(b1-4)GlcNAc
# Outline: as §1
# [6] = target: GlcNAc(b1-4)GlcNAc(b1-4)GlcNAc
# Outline: as §1
# [7] = target: GlcNAc(b1-4)GlcNAc(b1-4)GlcNAc(b1-4)GlcNAc(b1-4)GlcNAc
# Outline: as §1
# [8] = target: GlcNAc(b1-4)GlcNAc(b1-4)GlcNAc(b1-4)GlcNAc(b1-4)GlcNAc(b1-4)GlcNAc
# Outline: as §1
# [9] = target: GlcNAc(b1-4)[GlcNAc(b1-6)]GalNAc
# Outline: as §1
# [10] = target: GlcNAc(b1-6)Gal(b1-4)GlcNAc
# Outline: as §1
# GlcNAc(b1-6)GalNAc = target: GlcNAc(b1-6)GalNAc
# Outline: as §1
# GlcNAc3Prop(b1-4)GlcNAc = target: GlcNAc3Prop(b1-4)GlcNAc
# Outline: as §1
# [11] = target: GlcNAc6S(b1-3)Gal(b1-4)GlcNAc
# Outline: as §1
# Kdn(a2-3)Gal(b1-3)GalNAc = target: Kdn(a2-3)Gal(b1-3)GalNAc
# Outline: as §1
# Kdn(a2-3)Gal(b1-3)GlcNAc = target: Kdn(a2-3)Gal(b1-3)GlcNAc
# Outline: as §1
# Kdn(a2-3)Gal(b1-4)Glc = target: Kdn(a2-3)Gal(b1-4)Glc
# Outline: as §1
# Kdn(a2-3)Gal(b1-4)GlcNAc = target: Kdn(a2-3)Gal(b1-4)GlcNAc
# Outline: as §1
# [12] = target: Kdn(a2-3)Gal(b1-4)[Fuc(a1-3)]GlcNAc
# Outline: as §1
# Kdn(a2-6)Gal(b1-4)GlcNAc = target: Kdn(a2-6)Gal(b1-4)GlcNAc
# Outline: as §1
# [13] = target: Man(a1-2)Man(a1-2)Man(a1-3)Man
# Outline: as §1
# [14] = target: Man(a1-2)Man(a1-2)Man(a1-6)[Man(a1-3)]Man
# Outline: as §1
# Man(a1-2)Man(a1-3)Man = target: Man(a1-2)Man(a1-3)Man
# Outline: as §1
# [15] = target: Man(a1-2)Man(a1-3)[Man(a1-2)Man(a1-6)]Man
# Outline: as §1
# [16] = target: Man(a1-2)Man(a1-3)[Man(a1-2)Man(a1-6)]Man(a1-6)[Man(a1-2)Man(a1-2)Man(a1-3)]Man
# Outline: as §1
# [17] = target: Man(a1-2)Man(a1-3)[Man(a1-2)Man(a1-6)]Man(a1-6)[Man(a1-2)Man(a1-2)Man(a1-3)]Man(b1-4)GlcNAc(b1-4)GlcNAc
# Outline: as §1
# [18] = target: Man(a1-2)Man(a1-3)[Man(a1-2)Man(a1-6)]Man(a1-6)[Man(a1-3)[Man(a1-6)]Man(a1-6)]Man(b1-4)GlcNAc(b1-4)GlcNAc
# Outline: as §1
# [19] = target: Man(a1-2)Man(a1-3)[Man(a1-6)]Man(a1-6)[Man(a1-2)Man(a1-3)]Man(b1-4)GlcNAc(b1-4)GlcNAc
# Outline: as §1
# [20] = target: Man(a1-2)Man(a1-6)[Man(a1-3)]Man(a1-6)[Man(a1-2)Man(a1-2)Man(a1-3)]Man
# Outline: as §1
# [21] = target: Man(a1-2)Man(a1-6)[Man(a1-3)]Man(a1-6)[Man(a1-2)Man(a1-2)Man(a1-3)]Man(b1-4)GlcNAc(b1-4)GlcNAc
# Outline: as §1
# Man(a1-3)[Man(a1-6)]Man = target: Man(a1-3)[Man(a1-6)]Man
# Outline: as §1
# [22] = target: Man(a1-3)[Man(a1-6)]Man(a1-6)[Man(a1-2)Man(a1-3)]Man(b1-4)GlcNAc(b1-4)GlcNAc
# Outline: as §1
# [23] = target: Man(a1-3)[Man(a1-6)]Man(a1-6)[Man(a1-3)]Man
# Outline: as §1
# [24] = target: Man(a1-3)[Man(a1-6)]Man(a1-6)[Man(a1-3)]Man(b1-4)GlcNAc(b1-4)GlcNAc
# Outline: as §1
# [25] = target: Man(a1-3)[Man(a1-6)]Man(b1-4)GlcNAc(b1-4)GlcNAc
# Outline: as §1
# Man(a1-6)Man = target: Man(a1-6)Man
# Outline: as §1
# Man(b1-4)GlcNAc = target: Man(b1-4)GlcNAc
# Outline: as §1
# Neu5Ac(a2-3)Gal = target: Neu5Ac(a2-3)Gal
# Outline: as §1
# [26] = target: Neu5Ac(a2-3)Gal(b1-3)GalNAc
# Outline: as §1
# [27] = target: Neu5Ac(a2-3)Gal(b1-3)GalNAc(b1-3)Gal(a1-4)Gal(b1-4)Glc
# Outline: as §1
# [28] = target: Neu5Ac(a2-3)Gal(b1-3)GalNAc(b1-3)Gal(b1-4)GlcNAc
# Outline: as §1
# [29] = target: Neu5Ac(a2-3)Gal(b1-3)GalNAc(b1-4)[Neu5Ac(a2-3)]Gal(b1-4)Glc
# Outline: as §1
# [30] = target: Neu5Ac(a2-3)Gal(b1-3)GalNAc6S
# Outline: as §1
# [31] = target: Neu5Ac(a2-3)Gal(b1-3)GlcNAc
# Outline: as §1
binder,measurement,setting,value
B1,glycan array binding signal (z-score),GlcNAc(b1-3)Man,-0.23
same,glycan array binding signal (z-score),[1],-0.233
same,glycan array binding signal (z-score),[2],-0.231
same,glycan array binding signal (z-score),[3],-0.23
same,glycan array binding signal (z-score),[4],-0.244
same,glycan array binding signal (z-score),[5],-0.225
same,glycan array binding signal (z-score),GlcNAc(b1-4)GlcNAc,0.119
same,glycan array binding signal (z-score),[6],1.3
same,glycan array binding signal (z-score),[7],0.051
same,glycan array binding signal (z-score),[8],-0.006
same,glycan array binding signal (z-score),[9],-0.229
same,glycan array binding signal (z-score),[10],-0.21
same,glycan array binding signal (z-score),GlcNAc(b1-6)GalNAc,-0.236
same,glycan array binding signal (z-score),GlcNAc3Prop(b1-4)GlcNAc,-0.238
same,glycan array binding signal (z-score),[11],-0.119
same,glycan array binding signal (z-score),Kdn(a2-3)Gal(b1-3)GalNAc,0.09
same,glycan array binding signal (z-score),Kdn(a2-3)Gal(b1-3)GlcNAc,-0.24
same,glycan array binding signal (z-score),Kdn(a2-3)Gal(b1-4)Glc,-0.223
same,glycan array binding signal (z-score),Kdn(a2-3)Gal(b1-4)GlcNAc,-0.232
same,glycan array binding signal (z-score),[12],-0.121
same,glycan array binding signal (z-score),Kdn(a2-6)Gal(b1-4)GlcNAc,-0.23
same,glycan array binding signal (z-score),[13],0.373
same,glycan array binding signal (z-score),[14],-0.183
same,glycan array binding signal (z-score),Man(a1-2)Man(a1-3)Man,-0.246
same,glycan array binding signal (z-score),[15],-0.231
same,glycan array binding signal (z-score),[16],7.38
same,glycan array binding signal (z-score),[17],1.22
same,glycan array binding signal (z-score),[18],5.26
same,glycan array binding signal (z-score),[19],2.01
same,glycan array binding signal (z-score),[20],1.31
same,glycan array binding signal (z-score),[21],6.83
same,glycan array binding signal (z-score),Man(a1-3)[Man(a1-6)]Man,-0.232
same,glycan array binding signal (z-score),[22],2.68
same,glycan array binding signal (z-score),[23],-0.241
same,glycan array binding signal (z-score),[24],2.72
same,glycan array binding signal (z-score),[25],1.59
same,glycan array binding signal (z-score),Man(a1-6)Man,-0.234
same,glycan array binding signal (z-score),Man(b1-4)GlcNAc,-0.244
same,glycan array binding signal (z-score),Neu5Ac(a2-3)Gal,-0.225
same,glycan array binding signal (z-score),[26],-0.215
same,glycan array binding signal (z-score),[27],-0.228
same,glycan array binding signal (z-score),[28],-0.238
same,glycan array binding signal (z-score),[29],-0.242
same,glycan array binding signal (z-score),[30],-0.238
same,glycan array binding signal (z-score),[31],-0.24
